# Laboratory results reported in PubChem BioAssay AID894 (National Center for Advancing Translational Sciences (NCATS), 2007).
# Where “and” joins values, the source holds several entries; their conditions need not be identical. Equal entries are not always repeated. Hit rate of the full screen: of about 150,000 compounds, about 6,500 (4.3%) were called active. The shares of active, inactive and inconclusive entries below differ from those in the screen. Calls follow the shape of the dose curve; as a rule, active = well fitted inhibition curve with a large enough effect (not every such curve was filed as active); inconclusive = small, poorly fitted or top-dose-only effect, or another doubt; inactive = no such curve, though single readings can be large or run the other way. Potencies of inconclusive entries are left out as doubtful fits.
# Target: 15-hydroxyprostaglandin dehydrogenase [NAD(+)] (Homo sapiens) (UniProt P15428)
# Experiment: qHTS Assay for Inhibitors of HPGD (15-Hydroxyprostaglandin Dehydrogenase)
# Settings: purified HPGD, NADH fluorescence kinetic, PGE2 substrate; activity change, negative = inhibition: stronger effect = lower value
# In short: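 20 nM HPGD preincubated 15 min at room temperature with compound in 50 mM Tris-HCl pH 8, 0.01% Tween 20. Started with 1 mM NAD+ and 30 uM prostaglandin E2; NADH fluorescence (360/450 nm) read 5 times over 30-s intervals, last minus first.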
# % is scaled to controls: 0 for no effect and ±100 for the full control effect; potency is read from the fitted curve at half-maximal effect; tags tell the direction and shape of the fitted curve.
# UniProt P15428, sequence (P15428 whole entry, looked up): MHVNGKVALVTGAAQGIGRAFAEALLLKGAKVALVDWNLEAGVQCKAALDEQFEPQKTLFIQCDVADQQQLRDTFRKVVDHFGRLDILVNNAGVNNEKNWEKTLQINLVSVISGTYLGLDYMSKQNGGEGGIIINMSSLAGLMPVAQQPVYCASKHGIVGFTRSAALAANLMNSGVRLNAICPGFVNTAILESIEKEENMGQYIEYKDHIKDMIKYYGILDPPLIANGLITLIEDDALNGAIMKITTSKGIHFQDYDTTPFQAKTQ
SMILES,Potency,"activity change, negative = inhibition"
CC(OC(=O)c1nn(C)c(=O)c2ccccc12)C(=O)NCc1ccc2c(c1)OCO2 (stereo unspecified),active: 20 µM,
COC(=O)c1cccc(CSc2nnc(C)s2)c1,,inactive: -14.7%
O=C(NCCc1ccccc1F)C1CCCN1S(=O)(=O)c1ccc2ccccc2c1 (stereo unspecified),active: 15.8 µM,
CCOC(=O)C1=C(c2ccccc2)NC(=S)NC1C (stereo unspecified),,inactive: -7.75%
O=C(CSc1nc2ccccc2c(=O)n1CC1CCCO1)NCC1CCCO1 (stereo unspecified),,inactive: -4.01%
Cc1cc(C)nc(Sc2c(C)nn(-c3ccccc3)c2C)n1,,inactive: -13.8%
CCN1CCCC1CN(Cc1cc2cc(C)ccc2[nH]c1=O)C(=O)Nc1ccccc1OC (stereo unspecified),"inconclusive [inhibitor, single point]",
CCOC(=O)C1=C(C)N=c2s/c(=C/c3ccccc3)c(=O)n2C1c1ccc(OC)c(OC)c1 (stereo unspecified),,inactive: -8.64%
CC(=O)Nc1cccc(NC(=O)c2c(-c3c(Cl)cccc3Cl)noc2C)c1,"inconclusive [inhibitor, partial curve]",
Cc1cccc2c1-c1sc(C(=O)Nc3nccs3)cc1CO2,"inconclusive [inhibitor, partial curve]",
O=C(CSc1nnc(-c2ccc(NS(=O)(=O)c3ccccc3)cc2)o1)NCC1CCCO1 (stereo unspecified),"inconclusive [inhibitor, single point]",
CCOc1ccc2[nH]c(=O)c(CN(Cc3ccc(F)cc3)C(=O)c3ccco3)cc2c1,"inconclusive [inhibitor, single point]",
CC1CCCCN1CCNC(=O)c1cc2c(-c3ccccc3F)nn(C)c2s1 (stereo unspecified),"inconclusive [inhibitor, partial curve]",
Nc1cc([N+](=O)[O-])ccc1O,,inactive: -11.4% and inactive: -16%
CC(C)OC(=O)c1sc2nc(-c3ccccc3)ccc2c1N,"inconclusive [inhibitor, partial curve]",
Cc1sc(NC(=O)c2ccco2)c(CN2CCN(c3ccc(F)cc3)CC2)c1C,"inconclusive [inhibitor, partial curve]",
COC(=O)c1cccnc1NC(=S)NNC(=O)c1ccccc1,active: 25.1 µM,
CC(C)CSc1ncc(-c2cccc(C(F)(F)F)c2)cn1,,inactive: -14.4%
O=c1c2ccccc2oc2nc3n(c(=O)c12)CCCS3,"inconclusive [inhibitor, partial curve]",
Cc1ccc(CCNC(=O)Cn2cccc2)cc1,active: 14.1 µM,
CSCCC(NC(=O)c1cccc([N+](=O)[O-])c1)C(=O)O (stereo unspecified),,inactive: -6.62%
